Source: paper PMC4336329 (PLoS ONE, 2015)
About 14,000 (4.5%) of roughly 310,000 compounds showed an effect of 50% or more. Effects have a minus sign here. The list shows a part of the results.
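Note: peak tail current of the secondary pulse compared with the same well before compound.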

Each compound was assayed against human ether-à-go-go-related gene (hERG) potassium channel (human, UniProt Q12809) (assay: primary screen, population patch clamp on CHO cells stably expressing hERG).
human ether-à-go-go-related gene (hERG) potassium channel, sequence (Q12809 whole entry, looked up): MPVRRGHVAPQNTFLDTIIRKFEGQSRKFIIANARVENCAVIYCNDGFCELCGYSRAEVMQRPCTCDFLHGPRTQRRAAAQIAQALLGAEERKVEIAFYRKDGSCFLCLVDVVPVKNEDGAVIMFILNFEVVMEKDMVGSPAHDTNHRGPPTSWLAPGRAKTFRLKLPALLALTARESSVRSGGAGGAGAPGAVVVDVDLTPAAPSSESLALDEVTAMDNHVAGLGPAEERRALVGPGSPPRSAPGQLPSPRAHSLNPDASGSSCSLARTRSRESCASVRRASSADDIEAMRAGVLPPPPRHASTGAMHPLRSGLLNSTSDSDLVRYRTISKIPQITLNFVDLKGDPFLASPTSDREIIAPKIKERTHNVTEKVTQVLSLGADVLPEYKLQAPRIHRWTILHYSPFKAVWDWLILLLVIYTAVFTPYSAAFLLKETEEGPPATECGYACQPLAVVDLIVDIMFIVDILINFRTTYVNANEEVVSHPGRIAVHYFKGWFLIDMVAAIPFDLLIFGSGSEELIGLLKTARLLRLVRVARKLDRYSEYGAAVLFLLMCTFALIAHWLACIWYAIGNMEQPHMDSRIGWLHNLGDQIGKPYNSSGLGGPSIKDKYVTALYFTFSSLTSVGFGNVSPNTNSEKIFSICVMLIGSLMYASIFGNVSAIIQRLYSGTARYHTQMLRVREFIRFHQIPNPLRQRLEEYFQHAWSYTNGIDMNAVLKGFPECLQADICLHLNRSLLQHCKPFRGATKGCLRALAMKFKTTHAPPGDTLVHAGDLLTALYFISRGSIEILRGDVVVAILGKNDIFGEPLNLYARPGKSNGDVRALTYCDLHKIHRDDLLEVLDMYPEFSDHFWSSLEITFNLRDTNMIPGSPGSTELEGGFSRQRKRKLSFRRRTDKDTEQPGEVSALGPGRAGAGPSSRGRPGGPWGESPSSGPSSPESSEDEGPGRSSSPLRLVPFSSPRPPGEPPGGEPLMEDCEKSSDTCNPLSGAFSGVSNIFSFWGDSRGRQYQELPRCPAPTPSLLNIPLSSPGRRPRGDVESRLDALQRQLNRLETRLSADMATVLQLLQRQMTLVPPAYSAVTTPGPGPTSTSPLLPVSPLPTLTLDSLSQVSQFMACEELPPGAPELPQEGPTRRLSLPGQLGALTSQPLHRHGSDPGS
With `COc1ccc(NC(=O)CNc2cc(C)ccc2C)cc1S(=O)(=O)N1CCOCC1` the “hERG current change (%, negative = inhibition) at 10uM” value was -8.85%.
For `O=c1nc(Nc2ccc([N+](=O)[O-])cc2)[nH]c(=O)[nH]1`, the “hERG current change (%, negative = inhibition) at 10uM” value was 24.5%.
`COCCN(CC(=O)Nc1cccc(C)c1C)C(=O)Cn1c(=O)cnc2ccccc21` was tested, and the “hERG current change (%, negative = inhibition) at 10uM” value was -0.721%.
In the case of `O=C(CSc1ncccc1-c1nc2ccccc2[nH]1)N1CCc2ccccc21`, the “hERG current change (%, negative = inhibition) at 10uM” value is reported as 13.2%.
With `COc1ccc(OC)c(S(=O)(=O)n2ccnc2C(C)C)c1` the “hERG current change (%, negative = inhibition) at 10uM” value was 13.7%.
`CCOC(=O)CSc1nc2cc3c(cc2cc1C#N)OCO3` was tested, and the “hERG current change (%, negative = inhibition) at 10uM” value was 1.16%.
`C1CCC(Nc2nnnn2C2CCCCC2)CC1` was tested, and the “hERG current change (%, negative = inhibition) at 10uM” value was 7.77%.
In the case of `Cc1cccc(N(C(=O)CCC(=O)Nc2ccccn2)C(C(=O)NC(C)C)c2ccc(F)cc2)c1` (stereo not shown), the “hERG current change (%, negative = inhibition) at 10uM” value is reported as 23.2%.
`CN(C)c1nc(N)nc(CSc2nnnn2C)n1` was tested, and the “hERG current change (%, negative = inhibition) at 10uM” value was 9.06%.
`CCCn1nnnc1SCC(=O)NNC(=O)c1ccco1` was tested, and the “hERG current change (%, negative = inhibition) at 10uM” value was 7.41%.
`COc1cccc(CN2CCC(N(CCc3ccccc3)Cc3ccccc3)CC2)c1OC.O=C(O)C(=O)O` was tested, and the “hERG current change (%, negative = inhibition) at 10uM” value was -60.3%.
In the case of `CCN1CCN(CCCNC(=O)C2c3ccccc3C(=O)N(C)C2c2ccc(OC)cc2)CC1` (stereo not shown), the “hERG current change (%, negative = inhibition) at 10uM” value is reported as 14%.
In the case of `C/C(CC(=O)Nc1ccc(F)cc1F)=N\NC(=O)C(=O)N1CCCCC1`, the “hERG current change (%, negative = inhibition) at 10uM” value is reported as 31%.
`NC(=O)C1CC(=O)N(c2ccc(OCC(=O)Nc3cccc(C(F)(F)F)c3)cc2)C1` (stereo not shown) was tested, and the “hERG current change (%, negative = inhibition) at 10uM” value was 2.47%.
`C=CCn1c(=NC(=O)c2ccccc2[N+](=O)[O-])sc2cc(S(C)(=O)=O)ccc21` was tested, and the “hERG current change (%, negative = inhibition) at 10uM” value was 2.98%.
With `CCOC(=O)N1CCN(C(=O)c2cccc(NS(=O)(=O)c3ccc(F)c(F)c3)c2)CC1` the “hERG current change (%, negative = inhibition) at 10uM” value was 6.02%.
For `COCCn1cc(-c2csc(N)n2)c2ccccc21`, the “hERG current change (%, negative = inhibition) at 10uM” value was 4.23%.
With `CCC(c1nnnn1C1CCCC1)N(Cc1cccs1)Cc1cc2cccc(C)c2[nH]c1=O` (stereo not shown) the “hERG current change (%, negative = inhibition) at 10uM” value was 9.78%.
In the case of `CCc1ccc(NC(=O)c2cc(Br)ccc2Br)cc1`, the “hERG current change (%, negative = inhibition) at 10uM” value is reported as 5.71%.
For `O=C(c1csc2c1CCCC2)N1CCN(c2ccccc2)CC1`, the “hERG current change (%, negative = inhibition) at 10uM” value was -14.8%.
For `O=C(Cn1cnc2ccccc21)N/N=C/c1ccco1`, the “hERG current change (%, negative = inhibition) at 10uM” value was 12.5%.
With `COc1ccc2cc(C(=O)C3CCCN(C(=O)c4snnc4C)C3)ccc2c1` (stereo not shown) the “hERG current change (%, negative = inhibition) at 10uM” value was -17.3%.
`O=C(/C=C/c1ccccc1)NCCS(=O)(=O)N1CCN(c2ccccc2)CC1` was tested, and the “hERG current change (%, negative = inhibition) at 10uM” value was -1.07%.
`Cc1ccc(OCCN2C(=O)c3ccccc3C2=O)c(C)c1` was tested, and the “hERG current change (%, negative = inhibition) at 10uM” value was -1.63%.
`Cc1ccc(C)c(S(=O)(=O)N2CCN(CC(=O)NC(=O)NCc3ccccc3)CC2)c1` was tested, and the “hERG current change (%, negative = inhibition) at 10uM” value was -9.97%.
`O=C(CSc1nc(-c2ccco2)cc(C(F)(F)F)n1)N1CCSCC1` was tested, and the “hERG current change (%, negative = inhibition) at 10uM” value was -19.9%.
In the case of `O=C(NCCCN1CCOCC1)C(=O)N/N=C/c1ccc(F)cc1`, the “hERG current change (%, negative = inhibition) at 10uM” value is reported as 6.8%.
For `COc1ccc(N(CC(=O)Nc2ccc(C)cc2)S(=O)(=O)c2c(C)noc2C)cc1`, the “hERG current change (%, negative = inhibition) at 10uM” value was 19.8%.
For `O=C(NNc1nc(N2CCOCC2)nc(N2CCOCC2)n1)Nc1ccc(Cl)cc1`, the “hERG current change (%, negative = inhibition) at 10uM” value was 10.6%.
With `COC(=O)c1sc(C(F)(F)F)c(-c2ccccc2)c1S(=O)(=O)N(C)C` the “hERG current change (%, negative = inhibition) at 10uM” value was 9.31%.
With `CC1Cc2ccccc2N1C(=O)CSc1ncccn1` (stereo not shown) the “hERG current change (%, negative = inhibition) at 10uM” value was 4.57%.
`CC1C(=O)C(C)(C)C(=O)OC1c1ccc([N+](=O)[O-])cc1` (stereo not shown) was tested, and the “hERG current change (%, negative = inhibition) at 10uM” value was 11.8%.
In the case of `Cc1ccc(Nc2cccc(C(F)(F)F)c2)nn1`, the “hERG current change (%, negative = inhibition) at 10uM” value is reported as -0.351%.
With `O=Cc1ccc(OC(=O)Cc2ccc(F)cc2)cc1` the “hERG current change (%, negative = inhibition) at 10uM” value was 11.2%.
In the case of `Cc1cc(C)nc(SCc2ccc(C(=O)N/N=C/c3ccncc3)cc2)n1`, the “hERG current change (%, negative = inhibition) at 10uM” value is reported as -50.5%.
For `COc1ccccc1N=Cc1c(C)c(C#N)c2[nH]c3ccccc3n2c1=O`, the “hERG current change (%, negative = inhibition) at 10uM” value was 6.06%.
With `CCC1CCCCN1Cc1ccc(CNS(=O)(=O)c2ccc3c(c2)oc(=O)n3C)o1` (stereo not shown) the “hERG current change (%, negative = inhibition) at 10uM” value was -19.3%.
For `O=C(N/N=C/c1cnc(N2CCOCC2)s1)c1ccccc1`, the “hERG current change (%, negative = inhibition) at 10uM” value was 15.1%.
`Cc1nn(C)c(C(=O)N2CCN(C(=O)c3ccco3)CC2)c1Br` was tested, and the “hERG current change (%, negative = inhibition) at 10uM” value was 18.3%.
With `CC(C)c1cc(CN2CCN(C3CCCC3)C(CCO)C2)[nH]n1` (stereo not shown) the “hERG current change (%, negative = inhibition) at 10uM” value was -5.93%.
For `CC(=O)N=c1ncn(CC(COC(C)=O)OC(C)=O)c2nc[nH]c12` (stereo not shown), the “hERG current change (%, negative = inhibition) at 10uM” value was 12.7%.
In the case of `O=C1CCCN1CCC12CC3CC(CC(C3)C1)C2`, the “hERG current change (%, negative = inhibition) at 10uM” value is reported as -6.45%.
For `CC(C)CCOc1ccc(C(=O)NCCC(=O)N2CCOCC2)cc1`, the “hERG current change (%, negative = inhibition) at 10uM” value was -4.62%.
